Out of some 410,000 compounds screened, about 6,400 (1.6%) were called active. This list was built around the results that the source calls inconclusive (neither active nor inactive); the mix of calls is not that of the screen. Calls follow the shape of the dose curve; as a rule, active = well fitted inhibition curve with a large enough effect; inconclusive = small, poorly fitted or top-dose-only effect; inactive = no such curve, though single readings can be large or run the other way. No potency is given beside an inconclusive call; the fits are too rough.
These molecules were tested against Glucagon-like peptide 1 receptor (Homo sapiens) (UniProt P43220) (assay: qHTS of GLP-1 Receptor Inverse Agonists (Inhibition Mode)). Conditions: HEK293 GLP-1R CRE-luciferase, luminescence, 24 h, GLP-1R form is constitutively active; activity change, negative = inhibition: at 38.3 µM (top of the series) unless noted.
How it was run: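 Readout was luciferase luminescence, measured 12 min after detection reagent at room temperature. Beforehand, GLP-1R reporter HEK293 cells had sat 12 h, then received compounds for 24 hr at 37 deg C.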
% is scaled to controls: 0 for no effect and ±100 for the full control effect; potency is read from the fitted curve at half-maximal effect; tags tell the direction and shape of the fitted curve.
Also: nearly all actives have a fitted effect of over 55% in size.

Chain of UniProt P43220 (P43220 whole entry, looked up): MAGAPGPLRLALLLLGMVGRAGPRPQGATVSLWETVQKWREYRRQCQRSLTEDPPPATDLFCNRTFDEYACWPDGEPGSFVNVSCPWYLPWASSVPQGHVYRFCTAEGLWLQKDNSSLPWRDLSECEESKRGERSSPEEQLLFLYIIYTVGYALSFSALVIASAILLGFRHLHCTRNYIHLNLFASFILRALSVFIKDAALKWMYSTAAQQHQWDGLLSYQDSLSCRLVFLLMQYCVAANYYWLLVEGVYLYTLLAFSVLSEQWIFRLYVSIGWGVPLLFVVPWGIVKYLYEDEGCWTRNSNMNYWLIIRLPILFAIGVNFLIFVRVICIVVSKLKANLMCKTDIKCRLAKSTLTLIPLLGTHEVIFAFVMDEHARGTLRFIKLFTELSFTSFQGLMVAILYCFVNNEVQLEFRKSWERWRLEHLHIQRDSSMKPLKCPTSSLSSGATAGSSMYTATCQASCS

**Q.** Which Potency does the source give for `Cc1cccc(-n2c(Cc3ccccc3)nnc2SCc2nc(-c3cccs3)no2)c1` here?
**A.** Its Potency is inconclusive [inhibitor, single point].

**Q.** How did the Potency turn out when `CCCCNc1c(-c2ccc(SC(C)CC)cc2)nc2ccc(Cl)cn12` (stereo not drawn) was run?
**A.** Its Potency is inconclusive [inhibitor, full curve].

**Q.** Which Potency does the source give for `Cc1ccc(S(=O)(=O)N(C)c2ccc(C(=O)Nc3ccc(C)cn3)cc2)cc1` here?
**A.** Its Potency is inconclusive [inhibitor, partial curve, poor fit].

**Q.** How did the Potency turn out when `CCC(=O)N1CCN(c2ccc(NC(=O)c3cc4ccccc4o3)cc2Cl)CC1` was run?
**A.** Its Potency is active: 11.2 µM.

**Q.** How did the Potency turn out when `OC(c1cc(F)cc(Cl)c1)c1ncc(-c2ccccc2Cl)[nH]1` (stereo not drawn) was run?
**A.** The Potency was inconclusive [inhibitor, partial curve, poor fit].

**Q.** With `CSc1ccc(C(=O)C2CCCN(C(=O)c3ccsc3)C2)cc1` (stereo not drawn) as the molecule, how does the Potency read?
**A.** Its Potency is inconclusive [inhibitor, single point].

**Q.** For `COc1ccc(OC)c(C(c2nnnn2CCc2ccccc2)N2CCN(c3ccccc3)CC2)c1` (stereo not drawn), which Potency is on record?
**A.** The Potency was inconclusive [inhibitor, partial curve, poor fit].

**Q.** `COc1cccc(CNC(=O)N2CCN(c3ccccc3Cl)CC2)c1` was tested. Which Potency did it give?
**A.** Its Potency is inconclusive [inhibitor, single point].

**Q.** Which Potency does the source give for `CCOC(=O)c1cc(C)n(CC2CCC(C(=O)Nc3cccc(C)c3)CC2)c1C` (stereo not drawn) here?
**A.** The Potency was inconclusive [inhibitor, single point].

**Q.** With `C=Cc1ccc(Cn2nc(-c3ccc(C)cc3)ccc2=O)cc1` as the molecule, how does the Potency read?
**A.** The Potency was inconclusive [inhibitor, partial curve, poor fit].

**Q.** `Cc1cccc(-n2cc(-c3ccccc3)c3c(NC4CCCC4)ncnc32)c1` was tested. Which Potency did it give?
**A.** Its Potency is inconclusive [inhibitor, full curve].

**Q.** For `Cc1cc(C)cc(C(O)c2ncc(-c3cccc(C(F)(F)F)c3)[nH]2)c1` (stereo not drawn), which Potency is on record?
**A.** Its Potency is inconclusive [inhibitor, single point].

**Q.** With `Cc1cc(NC(=O)CSc2nc(C3CCCCC3)nc3ccccc23)no1` as the molecule, how does the Potency read?
**A.** The Potency was inconclusive [inhibitor, partial curve, poor fit].

**Q.** For `Cc1ccc(C(=O)CSc2cc(C)[nH]c(=O)n2)cc1`, which Potency is on record?
**A.** Its Potency is inconclusive [inhibitor, partial curve, poor fit].

**Q.** Which Potency does the source give for `CCOC(=O)c1c(NC(=O)c2ccc(S(=O)(=O)N3CCC(C)CC3)cc2)sc2c1CCN(CC)C2` here?
**A.** The Potency was inconclusive [inhibitor, single point].

**Q.** `COC(=O)[C@]12CCCCC=C1N(Cc1ccccc1)C(=O)[C@H](CC(=O)NCCC(C)C)C2` was tested. Which Potency did it give?
**A.** The Potency was inconclusive [inhibitor, single point].

**Q.** Which “activity change, negative = inhibition” value does the source give for `CC(=O)N1C[C@@H](CO)[C@@H](N(C)C(=O)c2ccco2)C[C@H]1c1ccccc1` here?
**A.** The value was inactive: 17.5%.

**Q.** For `O=S1(=O)CC(N2CCN(CC3CC3)CC2)CN1Cc1ccc(F)cc1` (stereo not drawn), which Potency is on record?
**A.** The Potency was inconclusive [inhibitor, full curve].

**Q.** How did the Potency turn out when `Cc1ccc(-c2nc(C=Nc3ccc(O)cc3)c(O)o2)cc1` was run?
**A.** The Potency was inconclusive [inhibitor, partial curve, poor fit].

**Q.** For `O=C(Nc1ccc(C(F)(F)F)cc1Cl)c1ccc(Cn2cc(Br)cn2)o1`, which Potency is on record?
**A.** Its Potency is inconclusive [inhibitor, partial curve, poor fit].

**Q.** How did the “activity change, negative = inhibition” value turn out when `Cc1ccccc1NC(=O)c1ccc([N+](=O)[O-])o1` was run?
**A.** The value was inactive: 39.8%.

**Q.** Which Potency does the source give for `COc1ccc(-c2ncccc2OC(=O)C23CC4CC(CC(C4)C2)C3)cc1` here?
**A.** The Potency was inconclusive [inhibitor, partial curve, poor fit].

**Q.** For `O=C(c1ccc(Br)cc1)N1CCN(CCc2ccncc2)CC1`, which Potency is on record?
**A.** The Potency was inconclusive [inhibitor, partial curve, poor fit].

**Q.** How did the Potency turn out when `CC(=O)/C(=C/c1ccccc1)C(=O)Nc1ccccc1C` was run?
**A.** Its Potency is inconclusive [inhibitor, partial curve, poor fit].

**Q.** With `Cn1nc(-c2ccccc2F)c2cc(C(=O)NCCc3ccc(Cl)cc3)sc21` as the molecule, how does the Potency read?
**A.** Its Potency is inconclusive [inhibitor, single point].

**Q.** Which Potency does the source give for `CCC(=O)Nc1cccc(C(=O)/C=C/c2ccccc2)c1` here?
**A.** Its Potency is inconclusive [inhibitor, single point].

**Q.** How did the Potency turn out when `Cc1nn(-c2ccccc2Cl)c(Cl)c1/C=N/Nc1cccc(C(=O)O)c1` was run?
**A.** Its Potency is inconclusive [inhibitor, partial curve, poor fit].

**Q.** How did the Potency turn out when `Cc1ccc(NC(=O)CN(C)C(=O)COC(=O)/C=C/c2cccs2)cc1` was run?
**A.** The Potency was inconclusive [inhibitor, single point].

**Q.** `Cc1cccc(C(=O)Nc2scc(CC(C)C)c2C(=O)O)c1` was tested. Which Potency did it give?
**A.** The Potency was inconclusive [inhibitor, partial curve, poor fit].

**Q.** Which “activity change, negative = inhibition” value does the source give for `C#CCOCCOCCOCCNc1nc(N2CCN(C(=O)[C@H](CCCCN)n3cc(CC(C)O)nn3)CC2)nc(N2CCN(C(=O)[C@H](Cc3ccc(O)cc3)n3cc(CCO)nn3)CC2)n1` (stereo partly drawn) here?
**A.** The value was inactive: -5.19%.

**Q.** How did the Potency turn out when `OCC1(CCOc2ccccc2)CCN(Cc2ccccc2C(F)(F)F)CC1` was run?
**A.** The Potency was inconclusive [inhibitor, single point].

**Q.** With `CCOC(=O)C1CCN(C(c2cccc(F)c2)c2c(O)cc(C)n(Cc3ccco3)c2=O)CC1` (stereo not drawn) as the molecule, how does the “activity change, negative = inhibition” value read?
**A.** Its value is inactive: -12.4%.

**Q.** `c1ccc(COc2ccc(-c3cc4nc(NCc5ccc6c(c5)OCO6)ccn4n3)cc2)cc1` was tested. Which Potency did it give?
**A.** Its Potency is inconclusive [inhibitor, single point].

**Q.** How did the Potency turn out when `CCCN(CCC)CCCNC(=O)c1ccc(CS(=O)(=O)c2c(Cl)cccc2Cl)o1` was run?
**A.** The Potency was inconclusive [inhibitor, partial curve, poor fit].

**Q.** Which Potency does the source give for `COC(=O)N/N=C/c1c(C)nn(-c2cccc(Cl)c2)c1Cl` here?
**A.** The Potency was inconclusive [inhibitor, full curve].

**Q.** With `COc1ccccc1C(=O)Nc1cccc(NC(=O)c2ccccc2C)c1` as the molecule, how does the Potency read?
**A.** Its Potency is inconclusive [inhibitor, partial curve, poor fit].

**Q.** `CCN(CC(=O)NC(C)(C)C)Cc1nc2c(Br)cc(Br)cc2c(=O)[nH]1` was tested. Which Potency did it give?
**A.** Its Potency is inconclusive [inhibitor, single point].

**Q.** Which Potency does the source give for `CCOc1cc(/C=C2\C(=O)N(Cc3ccc(C)cc3)C(C)=C2C(=O)OC)ccc1O` here?
**A.** The Potency was inconclusive [inhibitor, partial curve, poor fit].
